# Measurements reported in the supplement of paper PMC8728848.
# This is one part of the list.
# Tests used:
# Assay in all cases: glycan array binding signal (z-score within array); higher = stronger binding
# Conditions in all cases: glycan notation: IUPAC condensed, linker removed
# [1] = molecular target: Gal(b1-4)GlcNAc(b1-3)Gal(b1-4)GlcNAc(b1-2)Man(a1-3)[Gal(b1-4)GlcNAc(b1-3)Gal(b1-4)GlcNAc(b1-2)Man(a1-6)]Man(b1-4)GlcNAc(b1-4)[Fuc(a1-6)]GlcNAc
# Outline: (§1)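 From the Consortium for Functional Glycomics database, 3228 arrays were curated, keeping only those whose protein sequence was available. Binding is given as a within-array Z-score averaged across arrays sharing a protein sequence and across linkers. Negative Z-scores can be read as non-binding.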
# [2] = molecular target: Gal(b1-4)GlcNAc(b1-3)Gal(b1-4)GlcNAc(b1-2)[Gal(b1-4)GlcNAc(b1-3)Gal(b1-4)GlcNAc(b1-6)]Man(a1-6)[Gal(b1-4)GlcNAc(b1-3)Gal(b1-4)GlcNAc(b1-2)Man(a1-3)]Man(b1-4)GlcNAc(b1-4)GlcNAc
# Outline: as §1
# [3] = molecular target: Gal(b1-4)GlcNAc(b1-3)Gal(b1-4)GlcNAc(b1-2)[Gal(b1-4)GlcNAc(b1-3)Gal(b1-4)GlcNAc(b1-6)]Man(a1-6)[Gal(b1-4)GlcNAc(b1-3)Gal(b1-4)GlcNAc(b1-2)Man(a1-3)]Man(b1-4)GlcNAc(b1-4)[Fuc(a1-6)]GlcNAc
# Outline: as §1
# [4] = molecular target: Gal(b1-4)GlcNAc(b1-3)Gal(b1-4)GlcNAc(b1-3)Gal(b1-4)GlcNAc
# Outline: as §1
# [5] = molecular target: Gal(b1-4)GlcNAc(b1-3)Gal(b1-4)GlcNAc(b1-3)Gal(b1-4)GlcNAc(b1-2)Man(a1-3)[Gal(b1-4)GlcNAc(b1-3)Gal(b1-4)GlcNAc(b1-3)Gal(b1-4)GlcNAc(b1-2)Man(a1-6)]Man(b1-4)GlcNAc(b1-4)GlcNAc
# Outline: as §1
# [6] = molecular target: Gal(b1-4)GlcNAc(b1-3)Gal(b1-4)GlcNAc(b1-3)Gal(b1-4)GlcNAc(b1-2)Man(a1-3)[Gal(b1-4)GlcNAc(b1-3)Gal(b1-4)GlcNAc(b1-3)Gal(b1-4)GlcNAc(b1-2)Man(a1-6)]Man(b1-4)GlcNAc(b1-4)[Fuc(a1-6)]GlcNAc
# Outline: as §1
# [7] = molecular target: Gal(b1-4)GlcNAc(b1-3)Gal(b1-4)GlcNAc(b1-3)Gal(b1-4)GlcNAc(b1-2)[Gal(b1-4)GlcNAc(b1-3)Gal(b1-4)GlcNAc(b1-3)Gal(b1-4)GlcNAc(b1-6)]Man(a1-6)[Gal(b1-4)GlcNAc(b1-3)Gal(b1-4)GlcNAc(b1-3)Gal(b1-4)GlcNAc(b1-2)Man(a1-3)]Man(b1-4)GlcNAc(b1-4)[Fuc(a1-6)]GlcNAc
# Outline: as §1
# [8] = molecular target: Gal(b1-4)GlcNAc(b1-3)Gal(b1-4)GlcNAc(b1-3)Gal(b1-4)GlcNAc(b1-3)Gal(b1-4)GlcNAc(b1-2)Man(a1-3)[Gal(b1-4)GlcNAc(b1-3)Gal(b1-4)GlcNAc(b1-3)Gal(b1-4)GlcNAc(b1-3)Gal(b1-4)GlcNAc(b1-2)Man(a1-6)]Man(b1-4)GlcNAc(b1-4)GlcNAc
# Outline: as §1
# [9] = molecular target: Gal(b1-4)GlcNAc(b1-3)Gal(b1-4)GlcNAc(b1-3)Gal(b1-4)GlcNAc(b1-3)Gal(b1-4)GlcNAc(b1-2)Man(a1-3)[Gal(b1-4)GlcNAc(b1-3)Gal(b1-4)GlcNAc(b1-3)Gal(b1-4)GlcNAc(b1-3)Gal(b1-4)GlcNAc(b1-2)Man(a1-6)]Man(b1-4)GlcNAc(b1-4)[Fuc(a1-6)]GlcNAc
# Outline: as §1
# [10] = molecular target: Gal(b1-4)GlcNAc(b1-3)Gal(b1-4)GlcNAc(b1-3)Gal(b1-4)GlcNAc(b1-3)Gal(b1-4)GlcNAc(b1-2)[Gal(b1-4)GlcNAc(b1-3)Gal(b1-4)GlcNAc(b1-3)Gal(b1-4)GlcNAc(b1-3)Gal(b1-4)GlcNAc(b1-6)]Man(a1-6)[Gal(b1-4)GlcNAc(b1-3)Gal(b1-4)GlcNAc(b1-3)Gal(b1-4)GlcNAc(b1-3)Gal(b1-4)GlcNAc(b1-2)Man(a1-3)]Man(b1-4)GlcNAc(b1-4)[Fuc(a1-6)]GlcNAc
# Outline: as §1
# [11] = molecular target: Gal(b1-4)GlcNAc(b1-3)Gal(b1-4)GlcNAc(b1-3)Gal(b1-4)GlcNAc(b1-3)Gal(b1-4)GlcNAc(b1-3)Gal(b1-4)GlcNAc(b1-2)Man(a1-3)[Gal(b1-4)GlcNAc(b1-3)Gal(b1-4)GlcNAc(b1-3)Gal(b1-4)GlcNAc(b1-3)Gal(b1-4)GlcNAc(b1-3)Gal(b1-4)GlcNAc(b1-2)Man(a1-6)]Man(b1-4)GlcNAc(b1-4)GlcNAc
# Outline: as §1
# [12] = molecular target: Gal(b1-4)GlcNAc(b1-3)Gal(b1-4)GlcNAc(b1-3)Gal(b1-4)GlcNAc(b1-3)Gal(b1-4)GlcNAc(b1-3)Gal(b1-4)GlcNAc(b1-2)Man(a1-3)[Gal(b1-4)GlcNAc(b1-3)Gal(b1-4)GlcNAc(b1-3)Gal(b1-4)GlcNAc(b1-3)Gal(b1-4)GlcNAc(b1-3)Gal(b1-4)GlcNAc(b1-2)Man(a1-6)]Man(b1-4)GlcNAc(b1-4)[Fuc(a1-6)]GlcNAc
# Outline: as §1
# [13] = molecular target: Gal(b1-4)GlcNAc(b1-3)Gal(b1-4)GlcNAc(b1-3)Gal(b1-4)GlcNAc(b1-3)Gal(b1-4)GlcNAc(b1-3)Gal(b1-4)GlcNAc(b1-2)[Gal(b1-4)GlcNAc(b1-3)Gal(b1-4)GlcNAc(b1-3)Gal(b1-4)GlcNAc(b1-3)Gal(b1-4)GlcNAc(b1-3)Gal(b1-4)GlcNAc(b1-6)]Man(a1-6)[Gal(b1-4)GlcNAc(b1-3)Gal(b1-4)GlcNAc(b1-3)Gal(b1-4)GlcNAc(b1-3)Gal(b1-4)GlcNAc(b1-3)Gal(b1-4)GlcNAc(b1-2)Man(a1-3)]Man(b1-4)GlcNAc(b1-4)[Fuc(a1-6)]GlcNAc
# Outline: as §1
# [14] = molecular target: Gal(b1-4)GlcNAc(b1-3)Gal(b1-4)GlcNAc(b1-3)Gal(b1-4)GlcNAc(b1-3)Gal(b1-4)GlcNAc(b1-3)Gal(b1-4)GlcNAc(b1-3)Gal(b1-4)GlcNAc(b1-2)Man(a1-3)[Gal(b1-4)GlcNAc(b1-3)Gal(b1-4)GlcNAc(b1-3)Gal(b1-4)GlcNAc(b1-3)Gal(b1-4)GlcNAc(b1-3)Gal(b1-4)GlcNAc(b1-3)Gal(b1-4)GlcNAc(b1-2)Man(a1-6)]Man(b1-4)GlcNAc(b1-4)GlcNAc
# Outline: as §1
# [15] = molecular target: Gal(b1-4)GlcNAc(b1-3)Gal(b1-4)GlcNAc(b1-3)GalNAc
# Outline: as §1
# [16] = molecular target: Gal(b1-4)GlcNAc(b1-3)Gal(b1-4)GlcNAc(b1-3)[Gal(b1-4)GlcNAc(b1-3)Gal(b1-4)GlcNAc(b1-6)]GalNAc
# Outline: as §1
# [17] = molecular target: Gal(b1-4)GlcNAc(b1-3)Gal(b1-4)GlcNAc(b1-6)[Gal(b1-3)]GalNAc
# Outline: as §1
# [18] = molecular target: Gal(b1-4)GlcNAc(b1-3)Gal(b1-4)[Fuc(a1-3)]GlcNAc(b1-3)Gal(b1-4)[Fuc(a1-3)]GlcNAc
# Outline: as §1
# [19] = molecular target: Gal(b1-4)GlcNAc(b1-3)GalNAc
# Outline: as §1
# [20] = molecular target: Gal(b1-4)GlcNAc(b1-3)[Fuc(a1-3)GlcNAc(b1-6)]Gal(b1-4)Glc
# Outline: as §1
# [21] = molecular target: Gal(b1-4)GlcNAc(b1-3)[Gal(b1-4)GlcNAc(b1-6)]Gal(b1-4)GlcNAc
# Outline: as §1
# [22] = molecular target: Gal(b1-4)GlcNAc(b1-3)[GlcNAc(b1-6)]Gal(b1-4)GlcNAc
# Outline: as §1
# [23] = molecular target: Gal(b1-4)GlcNAc(b1-6)Gal(b1-4)GlcNAc
# Outline: as §1
# [24] = molecular target: Gal(b1-4)GlcNAc(b1-6)GalNAc
# Outline: as §1
# [25] = molecular target: Gal(b1-4)GlcNAc(b1-6)[Gal(b1-3)]GalNAc
# Outline: as §1
# [26] = molecular target: Gal(b1-4)GlcNAc(b1-6)[Gal(b1-4)GlcNAc(b1-3)]GalNAc
# Outline: as §1
# Gal(b1-4)GlcNAc6P = molecular target: Gal(b1-4)GlcNAc6P
# Outline: as §1
# Gal(b1-6)Gal = molecular target: Gal(b1-6)Gal
# Outline: as §1
# Gal3S(b1-3)GalNAc = molecular target: Gal3S(b1-3)GalNAc
# Outline: as §1
# Gal3S(b1-3)GlcNAc = molecular target: Gal3S(b1-3)GlcNAc
# Outline: as §1
# [27] = molecular target: Gal3S(b1-3)[Fuc(a1-4)]GlcNAc
# Outline: as §1
# Gal3S(b1-4)Glc = molecular target: Gal3S(b1-4)Glc
# Outline: as §1
# Gal3S(b1-4)Glc6S = molecular target: Gal3S(b1-4)Glc6S
# Outline: as §1
# Gal3S(b1-4)GlcNAc = molecular target: Gal3S(b1-4)GlcNAc
# Outline: as §1
# [28] = molecular target: Gal3S(b1-4)[Fuc(a1-3)]Glc6S
# Outline: as §1
# [29] = molecular target: Gal3S(b1-4)[Fuc(a1-3)]GlcNAc
# Outline: as §1
# [30] = molecular target: Gal3S(b1-4)[Fuc(a1-3)]GlcNAc6S
# Outline: as §1
binder,measurement,setting,value
"Als1 (Candida albicans), P46590 (protein) KTITGVFDSFNSLTWSNAANYAFKGPGYPTWNAVLGWSLDGTSANPGDTFTLNMPCVFKYTTSQTSVDLTADGVKYATCQFYSGEEFTTFSTLTCTVNDALKSSIKAFGTVTLPIAFNVGGTGSSTDLEDSKCFTAGTNTVTFNDGDKDISIDVEFEKSTVDPSGYLYASRVMPSLNKVTTLFVAPQCENGYTSGTMGFSSSNGDVAIDCSNIHIGITKGLNDWNYPVSSESFSYTKTCTSNGIQIKYQNVPAGYRPFIDAYISATDVNQYTLAYTNDYTCAGSRLQSKPFTLRWTGYKNSDAGSNGIVIVATTRTVTDSTTAVTTLPFNPSVDKTKTIEILQPIPTTTITTSYVGVTTSYLTKTAPIGETATVIVDVPYHTTTTVTSEWTGTITTTTTRTNPTDSIDTVVVQVP",glycan array binding signal (z-score),[1],-0.489
same,glycan array binding signal (z-score),[2],0.032
same,glycan array binding signal (z-score),[3],0.182
same,glycan array binding signal (z-score),[4],-0.664
same,glycan array binding signal (z-score),[5],1.05
same,glycan array binding signal (z-score),[6],-0.67
same,glycan array binding signal (z-score),[7],0.016
same,glycan array binding signal (z-score),[8],-0.434
same,glycan array binding signal (z-score),[9],-0.442
same,glycan array binding signal (z-score),[10],0.138
same,glycan array binding signal (z-score),[11],-0.26
same,glycan array binding signal (z-score),[12],-0.239
same,glycan array binding signal (z-score),[13],-0.126
same,glycan array binding signal (z-score),[14],0.041
same,glycan array binding signal (z-score),[15],0.648
same,glycan array binding signal (z-score),[16],0.316
same,glycan array binding signal (z-score),[17],0.488
same,glycan array binding signal (z-score),[18],-0.244
same,glycan array binding signal (z-score),[19],-0.474
same,glycan array binding signal (z-score),[20],-0.538
same,glycan array binding signal (z-score),[21],0.289
same,glycan array binding signal (z-score),[22],-0.604
same,glycan array binding signal (z-score),[23],0.551
same,glycan array binding signal (z-score),[24],-0.289
same,glycan array binding signal (z-score),[25],-0.286
same,glycan array binding signal (z-score),[26],-0.399
same,glycan array binding signal (z-score),Gal(b1-4)GlcNAc6P,-0.644
same,glycan array binding signal (z-score),Gal(b1-6)Gal,-0.739
same,glycan array binding signal (z-score),Gal3S(b1-3)GalNAc,0.272
same,glycan array binding signal (z-score),Gal3S(b1-3)GlcNAc,-0.202
same,glycan array binding signal (z-score),[27],0.026
same,glycan array binding signal (z-score),Gal3S(b1-4)Glc,-0.706
same,glycan array binding signal (z-score),Gal3S(b1-4)Glc6S,-0.394
same,glycan array binding signal (z-score),Gal3S(b1-4)GlcNAc,0.691
same,glycan array binding signal (z-score),[28],0.493
same,glycan array binding signal (z-score),[29],0.517
same,glycan array binding signal (z-score),[30],0.157
